Assay results: the supplement of paper PMC12217912
The other results are listed elsewhere or left out. The full chains were built here from the parent and the listed change. Values near 0.05 are background.

B1: TEV protease; numbered along this chain (parent)
chain: MGESLFKGPRDYNPISSSICHLTNESDGHTTSLYGIGFGPFIITNKHLFRRNNGTLVVQSLHGVFKVKDTTTLQQHLVDGRDMIIIRMPKDFPPFPQKLKFREPQREERICLVTTNFQTKSMSSMVSDTSCTFPSGDGIFWKHWIQTKDGQCGSPLVSTRDGFIVGIHSASNFTNTNNYFTSVPKNFMELLTNQEAQQWVSGWRLNADSVLWGGHKVFMVKPEEPFQPVKEATQL

Variants of: B1
Assay: raw area under fraction-flipped curve 0-4 h after induction (AUC4h, not background-subtracted), DNA-recorder readout of cleavage of the substrate (dimensionless); higher = more cleavage of the substrate by the protease variant
Conditions: temperature: 34 °C; time window: 0-4 h after rhamnose induction
Description: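 In vivo DNA recorder in E. coli TOP10(DE3) ΔrhaA at 34 °C. Each TEVp single-site mutant (parent TEVp 0) is paired with a single-site variant of the 7-mer TEVs (canonical ENLYFQ|S). The substrate sits between flexible linkers in a Bxb1-sfGFP-TEVs-SsrA fusion, so cleavage stabilises Bxb1 and speeds flipping of a recombination array, read by NGS. The value is the raw area under the fraction-flipped curve over 0-4 h after rhamnose induction (AUC4h), with ≥20 reads per time point. It is not background-subtracted; inactive controls average about 0.047.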
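Further: Bxb1 expression induced with 0.2% (w/v) L-rhamnose at OD600 near 0.5, cultures sampled hourly, flipped fraction per protease–substrate barcode pair counted by paired-end Illumina sequencing.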

Row | Variant | area with substrate ENLYFAS | area with substrate ENLYFCS | area with substrate ENLYFDS | area with substrate ENLYFES | area with substrate ENLYFFS | area with substrate ENLYFGS | area with substrate ENLYFHS | area with substrate ENLYFIS | area with substrate ENLYFKS | area with substrate ENLYFMS | area with substrate ENLYFNS | area with substrate ENLYFPS | area with substrate ENLYFRS | area with substrate ENLYFSS | area with substrate ENLYFTS | area with substrate ENLYFVS | area with substrate ENLYFWS | area with substrate ENLYFYS | area with substrate ENLYFLS
1 | R109W | 0.0595 | 0.0588 | 0.0568 | 0.0765 | 0.0732 | 0.0677 | 0.0522 | 0.0599 | 0.0415 | 0.0748 | 0.077 | 0.0569 | 0.0742 | 0.0719 | 0.0629 | 0.0642 | 0.0513 | 0.0348 | –
2 | I110D | 0.041 | 0.0538 | 0.0392 | – | 0.0575 | – | 0.0125 | 0.0418 | 0.054 | 0.051 | 0.0535 | 0.0504 | 0.063 | 0.0518 | 0.0518 | 0.0549 | 0.0749 | 0.0423 | 0.054
3 | C111M | 0.0585 | 0.0531 | – | 0.0629 | 0.0676 | – | – | 0.0558 | 0.073 | – | 0.0612 | 0.0525 | – | 0.0814 | – | – | 0.0533 | – | 0.0449
4 | V113G | 0.0861 | – | – | – | 0.058 | 0.0574 | – | 0.0546 | 0.0613 | – | 0.0479 | 0.0547 | – | – | – | – | 0.0506 | 0.0493 | –
5 | T114Y | 0.0533 | 0.0644 | 0.0665 | 0.0781 | – | – | 0.0565 | – | 0.0622 | 0.0479 | – | 0.0609 | 0.0531 | – | 0.0599 | – | 0.0522 | – | –
6 | S121H | 0.0552 | – | 0.0799 | 0.0602 | 0.0729 | – | 0.06 | 0.0611 | 0.0591 | 0.0727 | – | 0.0571 | 0.0591 | 0.0566 | 0.0658 | 0.0566 | 0.0566 | 0.0505 | –
7 | S121M | 0.0532 | 0.0527 | 0.0369 | 0.0684 | 0.0491 | – | 0.0654 | 0.0565 | 0.0526 | 0.0667 | 0.0637 | – | 0.0587 | – | 0.0603 | – | – | – | 0.0364
8 | S121W | 0.0797 | 0.0528 | – | 0.0458 | 0.0665 | – | – | 0.0481 | – | 0.0684 | 0.0695 | – | 0.0588 | 0.0572 | 0.0616 | – | 0.0681 | 0.0586 | 0.0456
9 | S123D | 0.0436 | – | 0.0556 | 0.0602 | 0.0635 | 0.0615 | – | 0.056 | 0.0619 | 0.0595 | 0.064 | 0.0679 | 0.0707 | 0.0548 | 0.0561 | 0.0523 | 0.0596 | 0.0561 | 0.0725
10 | S123I | 0.0588 | 0.0613 | 0.0353 | 0.0483 | 0.061 | – | 0.0615 | 0.0573 | 0.0596 | 0.0696 | 0.0655 | 0.0873 | 0.0611 | 0.0601 | 0.0836 | 0.0599 | 0.0629 | 0.0483 | 0.0653
11 | S124R | 0.0577 | 0.0698 | – | 0.0614 | 0.0696 | – | 0.0581 | 0.0621 | 0.0892 | 0.0697 | 0.052 | 0.0603 | 0.0389 | – | 0.0663 | 0.0651 | – | 0.0599 | 0.0759
12 | S124V | 0.0389 | 0.0596 | 0.0602 | 0.0683 | 0.0671 | 0.049 | – | 0.052 | 0.068 | 0.0555 | – | 0.0576 | 0.0483 | – | 0.0589 | 0.0575 | 0.0566 | – | –
13 | V126A | 0.0575 | 0.0575 | 0.0537 | 0.0381 | 0.0468 | – | 0.0578 | 0.0517 | 0.057 | 0.0609 | 0.0568 | 0.0648 | 0.0612 | – | 0.0568 | – | 0.0505 | 0.0605 | 0.054
14 | V126Y | 0.0604 | 0.0473 | 0.0658 | 0.0718 | – | – | 0.064 | 0.0626 | – | 0.0631 | – | 0.0575 | 0.0591 | 0.0618 | 0.0653 | – | 0.0568 | – | –
15 | S127E | 0.065 | 0.0478 | – | 0.0716 | 0.0698 | – | 0.05 | 0.059 | 0.0673 | 0.0724 | – | 0.058 | 0.0584 | 0.0627 | 0.0539 | 0.0308 | 0.0568 | – | –
16 | S127K | 0.0669 | 0.0489 | – | 0.0866 | 0.0717 | 0.048 | 0.0628 | 0.052 | 0.0547 | 0.0704 | – | 0.0617 | – | 0.0424 | – | 0.0701 | – | – | –
17 | S130Y | 0.069 | 0.0645 | 0.0671 | 0.0643 | 0.07 | – | 0.0696 | 0.0528 | – | 0.0645 | 0.0625 | 0.0562 | 0.0659 | – | 0.0608 | 0.0218 | 0.062 | 0.056 | –
18 | T132A | 0.0759 | 0.0538 | – | 0.0584 | 0.0637 | 0.0506 | – | 0.0594 | 0.0564 | 0.0621 | 0.0507 | 0.0624 | 0.0838 | – | – | 0.0544 | 0.0482 | 0.0424 | 0.0515
19 | F133K | 0.053 | – | – | 0.0377 | – | – | 0.0669 | 0.0656 | 0.0609 | – | – | 0.0556 | 0.0948 | 0.0645 | 0.0818 | – | 0.0506 | 0.0624 | –
20 | P134D | 0.0572 | 0.0592 | 0.0565 | 0.059 | 0.0707 | 0.0711 | 0.0635 | 0.0598 | 0.0546 | 0.0619 | 0.0647 | 0.062 | 0.0617 | 0.0574 | 0.0676 | 0.0467 | – | 0.0566 | 0.0558
21 | P134G | 0.0674 | – | – | 0.0642 | – | – | 0.0691 | 0.0638 | 0.0569 | – | – | – | – | 0.0422 | – | – | – | – | –
22 | S135R | 0.0551 | 0.0585 | 0.0466 | 0.0605 | 0.0673 | – | 0.0665 | 0.0583 | 0.0571 | 0.0613 | 0.0593 | 0.0673 | 0.0571 | 0.061 | 0.0648 | 0.0548 | 0.0581 | 0.0508 | 0.0596
23 | W141A | 0.0521 | – | – | 0.0608 | 0.0621 | – | – | 0.0593 | 0.0494 | 0.0374 | 0.0597 | 0.052 | 0.0375 | 0.0621 | – | 0.0543 | – | 0.0476 | –
24 | W141I | 0.0676 | – | – | 0.0526 | 0.054 | – | 0.0634 | 0.0617 | 0.0576 | 0.0603 | 0.0595 | 0.0655 | – | – | – | – | – | 0.0343 | –
25 | W141P | 0.0597 | 0.0577 | 0.0601 | 0.0514 | – | 0.0442 | – | 0.0571 | 0.0558 | 0.0566 | – | 0.0522 | 0.0632 | 0.0052 | 0.0528 | 0.0615 | – | 0.0625 | 0.0514
